Assay results: publication PMC4336329 (PLoS ONE, 2015)
Hit rate of the full screen: of about 310,000 compounds, about 2,200 (0.71%) showed an effect of 50% or more. The effect is printed as a negative number. The list shows a part of the results.

Each molecule was assayed against human ether-à-go-go-related gene (hERG) potassium channel (human, UniProt Q12809) (assay: primary screen, population patch clamp on CHO cells stably expressing hERG).
Chain of human ether-à-go-go-related gene (hERG) potassium channel (Q12809 whole entry, looked up): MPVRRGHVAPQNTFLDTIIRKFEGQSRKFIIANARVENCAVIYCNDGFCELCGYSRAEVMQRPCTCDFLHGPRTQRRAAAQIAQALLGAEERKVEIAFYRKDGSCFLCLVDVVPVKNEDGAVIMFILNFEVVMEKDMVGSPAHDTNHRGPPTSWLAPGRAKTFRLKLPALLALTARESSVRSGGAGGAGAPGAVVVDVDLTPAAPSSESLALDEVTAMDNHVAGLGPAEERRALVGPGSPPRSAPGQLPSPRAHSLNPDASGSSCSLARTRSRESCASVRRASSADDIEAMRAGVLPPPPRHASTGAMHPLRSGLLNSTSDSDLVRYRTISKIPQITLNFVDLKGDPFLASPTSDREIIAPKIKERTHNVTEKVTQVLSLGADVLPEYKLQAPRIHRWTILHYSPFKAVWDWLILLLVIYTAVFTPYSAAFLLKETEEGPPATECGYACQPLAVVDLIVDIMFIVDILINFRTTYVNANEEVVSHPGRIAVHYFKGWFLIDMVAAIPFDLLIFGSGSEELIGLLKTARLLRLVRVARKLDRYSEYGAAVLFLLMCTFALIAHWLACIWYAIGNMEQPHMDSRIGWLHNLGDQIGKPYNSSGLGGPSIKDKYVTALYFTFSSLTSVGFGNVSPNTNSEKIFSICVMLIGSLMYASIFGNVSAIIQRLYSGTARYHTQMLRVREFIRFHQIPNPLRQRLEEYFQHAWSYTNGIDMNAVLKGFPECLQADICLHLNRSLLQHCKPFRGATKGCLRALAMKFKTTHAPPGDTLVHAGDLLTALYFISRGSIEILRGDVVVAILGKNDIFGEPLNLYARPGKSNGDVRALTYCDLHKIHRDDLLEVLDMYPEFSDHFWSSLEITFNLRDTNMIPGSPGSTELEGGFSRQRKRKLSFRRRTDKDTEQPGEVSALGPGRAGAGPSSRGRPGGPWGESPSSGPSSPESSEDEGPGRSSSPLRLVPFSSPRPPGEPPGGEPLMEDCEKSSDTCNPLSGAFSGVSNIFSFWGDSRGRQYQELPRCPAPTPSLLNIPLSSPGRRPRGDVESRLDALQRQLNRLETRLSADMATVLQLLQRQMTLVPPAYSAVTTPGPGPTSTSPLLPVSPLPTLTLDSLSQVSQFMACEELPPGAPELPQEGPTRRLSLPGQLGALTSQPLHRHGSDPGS

In order of falling “hERG current change (%, negative = inhibition) at 1uM” value:
1. COc1ccc(NC2CCCN(C(=O)CCCN3CCCCC3=O)C2)cc1 (centres unmarked)  23.9%
2. CC1=C(c2ccccc2)[N+](=O)C2(CCCCC2)N1[O-]  17.8%
3. O=C(O)c1ccc(NC(=O)c2cn(-c3ccccc3)nc2-c2ccc(F)cc2)cc1  16.8%
4. CCC(Sc1n[nH]c(=O)[nH]c1=O)C(=O)OCc1ccccc1 (centres unmarked)  15.8%
5. COC(CNC(=O)CN1CCN(Cc2ccccc2F)C1=O)OC  15.4%
6. COc1ccc(CN2CCN(C(=O)CN3C(=O)C4C5C=CC(C5)C4C3=O)CC2)c(OC)c1OC (centres unmarked)  13.2%
7. O=C1Nc2cc(Cl)c(Cl)cc2N(O)N1c1ccccc1Cl  13%
8. Cc1ccc(C)c(N2CCN(c3ccc4cc(S(=O)(=O)N5CCCCC5)ccc4n3)CC2)c1  12.7%
9. CC(OC(=O)c1cc[n+]([O-])cc1)C(=O)Nc1ccc(Cl)cn1 (centres unmarked)  12.6%
10. O=c1oc(-c2ccc([N+](=O)[O-])cc2)nc2ccc(O)cc12  11.8%
11. CC(C)N(Cc1ccccc1)C(=S)NCc1ccccc1  11.7%
12. Cc1cc(C)cc(NC(=O)CSc2nccn2Cc2ccco2)c1  10.8%
13. CCOc1ccccc1-n1c(SCC(=O)N(C(C)C)C(C)C)nnc1-c1cccnc1  10.3%
14. Brc1ccc2[nH]c3nc(SCCN4CCOCC4)nnc3c2c1.Cl  9.2%
15. COc1ccc(S(=O)(=O)N2CCCC(C(=O)Nc3ccc(OC)c(OC)c3)C2)cc1 (centres unmarked)  9.16%
16. C/C(=C\C(=O)c1sccc1Cl)N(C)C  9.15%
17. Oc1ccc[nH+]c1SCc1ccccc1.[Br-]  9.06%
18. O=C(CSc1nnc(NC(=O)c2ccco2)s1)Nc1ccc(F)cc1F  8.99%
19. CC(C)COC(=O)OCN1C(=O)CN(CCN2CC(=O)N(COC(=O)OCC(C)C)C(=O)C2)CC1=O  8.92%
20. COc1c(C)cc(C(=O)C2CCCN(C(=O)c3cccc(-n4cccn4)c3)C2)cc1C (centres unmarked)  8.62%
21. Cc1cc(C)nc(NS(=O)(=O)c2ccc(NC(=O)Cn3c(=O)oc4ccccc43)cc2)n1  8.53%
22. CO/N=C/C1C(=O)NN=C1c1ccccc1 (centres unmarked)  7.92%
23. c1ccc(C(c2nnnn2C2CCCCC2)N2CCc3ccccc3C2)nc1 (centres unmarked)  7.86%
24. COc1ccccc1N1C(=O)c2cccnc2C1=O  7.72%
25. O=C(NCc1ccc(Cl)cc1)c1cc(S(=O)(=O)N2CCCCC2)c[nH]1  7.72%
26. COCCNC(=O)CN1C(=O)COc2ccc(S(=O)(=O)N3CC(C)CC(C)C3)cc21 (centres unmarked)  7.36%
27. COc1cc2c(cc1OC)C(c1ccccc1F)OC(=O)C2 (centres unmarked)  6.41%
28. Cc1ccc(O)c(C=Nc2cc(C)ccc2O)c1  6.4%
29. Cc1cc(C)cc(NC(=O)CCn2ccnc2C)c1  5.71%
30. COc1ccc(C(C(=O)NC(C)(C)C)N(Cc2ccco2)C(=O)CCC(=O)Nc2cc(C)on2)cc1 (centres unmarked)  4.56%
31. CCCOc1ccc(NC(=O)CC2C(=O)OCC3CCCCN32)cc1 (centres unmarked)  3.8%
32. CCOc1ccc(C2NC(=O)NC(C)=C2C(=O)OC)cc1C (centres unmarked)  2.95%
33. CN(C(=S)Nc1ccc(Oc2ccccc2)cc1)C1CCCCC1  2.93%
34. Cc1ccn2c(=O)nc(SCC(=O)N3CCN(c4ccccc4)CC3)nc2c1  2.29%
35. CS(=O)(=O)N(CC(=O)Nc1ccc(S(=O)(=O)N2CCOCC2)cc1)c1cccc(F)c1  1.71%
36. COc1ccccc1-n1cc(CN2CCN(C3CCCCC3)C(CCO)C2)cn1 (centres unmarked)  0.98%
37. CCNS(=O)(=O)c1ccc(C(=O)Nc2ccccc2)cc1  0.857%
38. O=C(CN1C(=O)/C(=C/c2ccc(F)cc2)SC1=S)N1CCN(CCc2ccccn2)CC1  -0.109%
39. O=C(C1CCN(c2nc3ccc(Br)cc3s2)CC1)N1CCC2(CC1)OCCO2  -1.69%
40. Cc1ccccc1Nc1nc(N)nc(COC(=O)[C@@H](NC(=O)c2ccccc2Cl)C(C)C)n1  -3.84%
41. CC(Oc1ccc(Br)cc1)C(=O)NCC(C)(C)N1CCOCC1 (centres unmarked)  -10.9%
42. COc1ccc(C2=NOC(C)(c3nnc(-c4ccccc4)o3)C2)cc1 (centres unmarked)  -11.2%
43. O=C(c1cccs1)N1CCC(N2CCN(c3ccccc3)CC2)CC1  -14.5%
44. COc1ccc(Nc2nnc(Cc3ccncc3)c3ccccc23)c(OC)c1  -66.6%
